# From the supplement of paper PMC3334620
# The full ranking holds about 33,000 sequences; the median of “E-score (-0.5 to 0.5)” is about -0.056, and the highest 2% start at about 0.38. Some of the results follow.
# Molecular target: Stb4 (UniProt P50104)
# Assay: PBM E-score (8-mer binding enrichment) (E-score (-0.5 to 0.5)); higher = stronger / more preferred TF binding; most listed sequences are background and not binding sites
# Details: protein concentration: 200 nM; construct: GST-DNA-binding domain
# Outline: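 Bound GST-tagged yeast transcription factors, applied at about 100-200 nM to double-stranded universal all-10-mer Agilent arrays, were detected with fluorescent anti-GST. Scans were normalised with masliner. A modified Wilcoxon-Mann-Whitney statistic, the E-score, was assigned to each ungapped eight-base word pooled with its reverse complement by the Universal PBM Analysis Suite.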
row,Sequence,PBM E-score
1,AGGGTCCG,0.208
2,ACAGGTGA,-0.166
3,CTTCTCCA,-0.262
4,CAAATATA,-0.0664
5,CAGGACGC,-0.21
6,TGTGTCAA,-0.161
7,CAGTACCG,0.183
8,TAAGCAAA,-0.185
9,GTTTGAGA,-0.186
10,GCAACGGA,0.245
11,GACGTTTA,-0.24
12,CTGTCTAC,-0.145
13,GAAAAATC,0.0101
14,AGGATGTA,-0.177
15,ACTGGCCG,-0.0328
16,CGTAGAAC,-0.0804
17,ATAGAAGC,-0.0927
18,ACAATCTC,0.12
19,AACTCACC,-0.0932
20,ATTCATCA,-0.0146
21,ACAGCCAG,-0.233
22,ACTCTTCC,0.141
23,CGATGGAA,0.0298
24,AACACTGG,-0.15
25,ACGCGGCC,-0.113

row,Sequence,PBM E-score
1,CGGAAGGC,0.373
2,GAAGACCA,0.00946
3,ATAAGAGC,-0.0564
4,GAGTAGAA,-0.14
5,AGGTAGTA,-0.0405
6,ACGCAGCG,-0.223
7,CAGCCCGA,0.216
8,GTATGTCA,-0.0522
9,GAGCAGCC,0.11
10,AGCCGTAA,0.0616
11,CCTGCTAA,-0.132
12,GCGCACCA,-0.0337
13,TCTAAACA,-0.0967
14,AAGAGGAT,-0.162
15,ACAAGATC,-0.0852
16,CTATGCAG,-0.145
17,AAAATTGT,0.131
18,ATGCGACG,0.0175
19,AGTCATTC,-0.0977
20,AGGAACAC,0.0248
21,CTTACGAA,-0.074
22,GAGGGCAA,0.00071
23,TACTGGCA,-0.0509
24,AACCTACA,-0.0052
25,CACCTAGA,-0.269

row,Sequence,PBM E-score
1,TACTCGGA,0.409
2,CCCGGGAG,0.307
3,AATAGTGC,0.0314
4,CAGTACAC,-0.118
5,CTACATCC,0.171
6,CATAAGTC,-0.129
7,CCCCAACC,-0.134
8,GGACGTCC,-0.0734
9,GACGTGCC,0.0166
10,TCCCTGCA,-0.0715
11,GTTGAGAA,-0.248
12,ATTAACGG,0.13
13,ATGGCCTA,-0.195
14,AGGGGGTC,-0.178
15,GACCAATC,-0.0806
16,ACTGCTCT,-0.182
17,GTACTGCA,-0.042
18,GTGTCAGA,-0.111
19,AGCGGTGA,-0.0416
20,AGTAATAA,-0.214
21,ACTAAGAG,-0.134
22,AGGCCGTA,-0.023
23,CGCATGCA,0.076
24,GAAATGCC,0.161
25,AGAAAGAC,0.1

row,Sequence,PBM E-score
1,CAGAACAG,-0.14
2,GATTTCGA,0.0573
3,ATTAAAAT,0.057
4,TAATAAGA,-0.175
5,CTTATTCA,-0.044
6,CGGGACTC,0.263
7,ATCCCTGG,-0.212
8,AATAACTA,-0.15
9,CGTCGAGA,-0.246
10,CGGAGTAA,0.283
11,GACGTGGC,-0.187
12,AGAAATAT,0.079
13,CAAGTAGG,-0.142
14,GACCTCTA,-0.0855
15,AAACACGC,-0.0563
16,ACGTCGCG,-0.0235
17,GTCATAAA,-0.117
18,GACGATCA,-0.234
19,AACATCGC,-0.123
20,GCTTTGGA,0.0278
21,AATTGGAT,-0.12
22,CAACTCCA,-0.0676
23,ACCAGGCG,-0.159
24,GAAGTCTA,-0.124
25,ATGCAAGA,-0.16

row,Sequence,PBM E-score
1,AGGATAAT,-0.0697
2,AGCATCGA,-0.0864
3,AACATCTT,0.0147
4,TGTGCGAA,-0.278
5,AAAACATT,-0.21
6,CCATTAAG,-0.161
7,GCAATGAC,-0.281
8,TCCCACAA,-0.0625
9,CGGTAGTC,0.212
10,CAGTGCCC,0.00019
11,AATACTCC,0.101
12,CTTATCCC,0.0732
13,CGTCGGGC,0.172
14,GAACTAAC,0.0966
15,GCCTCTAA,-0.13
16,CGATAACC,0.213
17,CCTTTCCA,-0.0672
18,ATCCATCA,-0.0756
19,GGTCAGAC,-0.287
20,CTGCCCGC,0.0182
21,GCACGGGA,0.305
22,GACCTTTA,-0.0636
23,GAAGCGTA,0.123
24,CGGTTATA,0.295
25,AACTGGAT,-0.0514

row,Sequence,PBM E-score
1,AATCTATC,-0.0505
2,ACTGAGGC,0.062
3,CCTAGGAA,-0.131
4,ATAAAGTG,0.0586
5,CTGAAGCC,-0.0635
6,AATGGAAT,0.0324
7,CCTTTACG,-0.0758
8,GATGTCTA,-0.17
9,CAGTACGC,-0.13
10,CTGACTCA,-0.323
11,ATAGTTTC,-0.005
12,ACTAGATA,-0.13
13,CAATGTGG,-0.134
14,ATTTTGTC,0.0874
15,GGCGAGAC,-0.245
16,CAGTCGAA,-0.178
17,AAGTTATT,-0.0763
18,GGCCATCA,-0.11
19,ACCTTCAT,-0.111
20,ACGCTAAA,-0.237
21,GATCTGAA,-0.0769
22,GGCCCCCA,-0.225
23,ACGACCCC,-0.139
24,CTACTAGC,0.111
25,CAGATGAC,-0.202

row,Sequence,PBM E-score
1,ACAACAGT,-0.0877
2,AACGGCAT,0.232
3,ACTCAAAC,-0.118
4,GACTTACC,0.168
5,CTCAGCGC,-0.213
6,AACAATTG,-0.23
7,GGGGGGTA,-0.0241
8,CGCACAAC,-0.22
9,TCTTCACA,-0.119
10,ATCTCCGA,0.396
11,GTGATATA,-0.0589
12,CACCTAGC,-0.119
13,ACTGAGTC,-0.0516
14,ATGAAGCC,0.169
15,AGGAATTG,-0.132
16,GGCCGCGA,-0.0905
17,ATCCCGGG,0.355
18,CCGAGTAG,0.391
19,CAGCTGAA,-0.147
20,GATGCTGA,-0.176
21,ACGGAAAG,0.374
22,GACGCTAC,0.0592
23,ACTAACCT,-0.115
24,CTATACCC,0.149
25,CTTACCAA,-0.245

row,Sequence,PBM E-score
1,TGTCACAA,0.0307
2,CCAACACG,-0.104
3,GCCTGTCC,-0.0763
4,CGGACGAG,0.111
5,GTACCGCA,0.13
6,AATGAATA,-0.165
7,ACGCCCGG,0.181
8,GGGTTTTA,0.0725
9,CGGGGCTA,0.138
10,AAGTCTTG,-0.0583
11,CTTTACTC,-0.059
12,AGTACCCA,-0.0907
13,TCCTTAAA,-0.428
14,CTGCTCCC,0.0152
15,ATAAAGTA,-0.0158
16,AAAAGCTA,-0.0736
17,CACCCTCA,-0.241
18,GATCAACA,-0.18
19,CGTGAGAC,-0.111
20,AAACCTGG,-0.167
21,CACGAGCA,-0.18
22,ATCCGCGC,0.332
23,TCCGCAGA,0.0922
24,AATCTCGG,0.434
25,CTCCAAGC,-0.215

row,Sequence,PBM E-score
1,GGGCGCGA,0.22
2,AGAGGAAG,-0.202
3,CATACATG,-0.254
4,ATGTTACG,-0.124
5,ACTCGCAA,-0.197
6,CAGCCTCC,-0.0731
7,CCCGCGGC,0.284
8,CCCTCAGC,-0.236
9,AAATCACG,0.0354
10,AGCCCCGG,0.188
11,GGCCTCAA,0.0517
12,GTAAAACA,-0.13
13,AGTAGTTA,-0.0446
14,CTCGAGAA,-0.198
15,ATGCTAGG,-0.0458
16,CGCTATGA,-0.0586
17,AGTCGGAT,0.429
18,CGGCATCA,0.236
19,GCTGGTAA,-0.0973
